Test results as given in the supplement of paper PMC8728848.
This is one part of the list.

Legend:
Assay in all cases: glycan array binding signal (z-score within array); higher = stronger binding
Settings in all cases: glycan notation: IUPAC condensed, linker removed
[1] = biological target: Fuc(b1-3)GlcNAc
Method in brief: (§1)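 Columns mapping to the same glycan were averaged after glycan names were converted to IUPAC-condensed notation. The data come from 3228 arrays in the Consortium for Functional Glycomics database, limited to those with an available protein sequence. Binding is reported as a within-array Z-score averaged across arrays of one protein sequence and across linkers.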

[2] = biological target: Gal(a1-2)Gal
Method in brief: as §1

[3] = biological target: Gal(a1-3)Gal
Method in brief: as §1

[4] = biological target: Gal(a1-3)Gal(b1-3)GlcNAc
Method in brief: as §1

[5] = biological target: Gal(a1-3)Gal(b1-3)GlcNAc(b1-2)Man
Method in brief: as §1

[6] = biological target: Gal(a1-3)Gal(b1-3)GlcNAc(b1-2)Man(a1-3)[Gal(a1-3)Gal(b1-3)GlcNAc(b1-2)Man(a1-6)]Man(b1-4)GlcNAc(b1-4)GlcNAc
Method in brief: as §1

[7] = biological target: Gal(a1-3)Gal(b1-3)GlcNAc(b1-3)GalNAc
Method in brief: as §1

[8] = biological target: Gal(a1-3)Gal(b1-3)GlcNAc(b1-6)GalNAc
Method in brief: as §1

[9] = biological target: Gal(a1-3)Gal(b1-3)[Fuc(a1-4)]GlcNAc(b1-2)Man(a1-3)[Gal(a1-3)Gal(b1-3)[Fuc(a1-4)]GlcNAc(b1-2)Man(a1-6)]Man(b1-4)GlcNAc(b1-4)GlcNAc
Method in brief: as §1

[10] = biological target: Gal(a1-3)Gal(b1-4)Glc
Method in brief: as §1

[11] = biological target: Gal(a1-3)Gal(b1-4)GlcNAc
Method in brief: as §1

[12] = biological target: Gal(a1-3)Gal(b1-4)GlcNAc(b1-2)Man
Method in brief: as §1

[13] = biological target: Gal(a1-3)Gal(b1-4)GlcNAc(b1-2)Man(a1-3)[Gal(a1-3)Gal(b1-4)GlcNAc(b1-2)Man(a1-6)]Man(b1-4)GlcNAc(b1-4)GlcNAc
Method in brief: as §1

[14] = biological target: Gal(a1-3)Gal(b1-4)GlcNAc(b1-3)GalNAc
Method in brief: as §1

[15] = biological target: Gal(a1-3)Gal(b1-4)GlcNAc(b1-6)GalNAc
Method in brief: as §1

[16] = biological target: Gal(a1-3)Gal(b1-4)[Fuc(a1-3)]GlcNAc
Method in brief: as §1

[17] = biological target: Gal(a1-3)Gal(b1-4)[Fuc(a1-3)]GlcNAc(b1-2)Man(a1-3)[Gal(a1-3)Gal(b1-4)[Fuc(a1-3)]GlcNAc(b1-2)Man(a1-6)]Man(b1-4)GlcNAc(b1-4)GlcNAc
Method in brief: as §1

[18] = biological target: Gal(a1-3)GalNAc
Method in brief: as §1

[19] = biological target: Gal(a1-3)[Gal(a1-4)]Gal(b1-4)GlcNAc
Method in brief: as §1

[20] = biological target: Gal(a1-4)Gal(b1-3)GlcNAc(b1-2)Man(a1-3)[Gal(a1-4)Gal(b1-3)GlcNAc(b1-2)Man(a1-6)]Man(b1-4)GlcNAc(b1-4)GlcNAc
Method in brief: as §1

[21] = biological target: Gal(a1-4)Gal(b1-4)Glc
Method in brief: as §1

[22] = biological target: Gal(a1-4)Gal(b1-4)GlcNAc
Method in brief: as §1

[23] = biological target: Gal(a1-4)Gal(b1-4)GlcNAc(b1-2)Man(a1-3)[Gal(a1-4)Gal(b1-4)GlcNAc(b1-2)Man(a1-6)]Man(b1-4)GlcNAc(b1-4)GlcNAc
Method in brief: as §1

[24] = biological target: Gal(a1-4)Gal(b1-4)GlcNAc(b1-3)Gal(b1-4)Glc
Method in brief: as §1

[25] = biological target: Gal(a1-4)GlcNAc
Method in brief: as §1

[26] = biological target: Gal(a1-6)Glc
Method in brief: as §1

[27] = biological target: Gal(b1-2)Gal
Method in brief: as §1

[28] = biological target: Gal(b1-3)Gal
Method in brief: as §1

[29] = biological target: Gal(b1-3)Gal(b1-4)GlcNAc
Method in brief: as §1

[30] = biological target: Gal(b1-3)Gal(b1-4)GlcNAc(b1-2)Man(a1-3)[Gal(b1-3)Gal(b1-4)GlcNAc(b1-2)Man(a1-6)]Man(b1-4)GlcNAc(b1-4)GlcNAc
Method in brief: as §1

[31] = biological target: Gal(b1-3)GalNAc
Method in brief: as §1

[32] = biological target: Gal(b1-3)GalNAc(a1-3)[Fuc(a1-2)]Gal(b1-4)Glc
Method in brief: as §1

[33] = biological target: Gal(b1-3)GalNAc(a1-3)[Fuc(a1-2)]Gal(b1-4)GlcNAc
Method in brief: as §1

[34] = biological target: Gal(b1-3)GalNAc(b1-3)Gal
Method in brief: as §1

[35] = biological target: Gal(b1-3)GalNAc(b1-3)Gal(a1-4)Gal(b1-4)Glc
Method in brief: as §1

[36] = biological target: Gal(b1-3)GalNAc(b1-4)Gal(b1-4)Glc
Method in brief: as §1

[37] = biological target: Gal(b1-3)GalNAc(b1-4)[Neu5Ac(a2-3)]Gal(b1-4)Glc
Method in brief: as §1

[38] = biological target: Gal(b1-3)GlcNAc
Method in brief: as §1

[39] = biological target: Gal(b1-3)GlcNAc(a1-3)Gal(b1-4)GlcNAc
Method in brief: as §1

[40] = biological target: Gal(b1-3)GlcNAc(a1-6)Gal(b1-4)GlcNAc
Method in brief: as §1

[41] = biological target: Gal(b1-3)GlcNAc(b1-2)Man
Method in brief: as §1

[42] = biological target: Gal(b1-3)GlcNAc(b1-2)Man(a1-3)[Gal(b1-3)GlcNAc(b1-2)Man(a1-6)]Man(b1-4)GlcNAc(b1-4)GlcNAc
Method in brief: as §1

[43] = biological target: Gal(b1-3)GlcNAc(b1-2)Man(a1-3)[Gal(b1-3)GlcNAc(b1-2)Man(a1-6)]Man(b1-4)GlcNAc(b1-4)[Fuc(a1-6)]GlcNAc
Method in brief: as §1

[44] = biological target: Gal(b1-3)GlcNAc(b1-2)Man(a1-3)[GlcNAc(b1-4)][Gal(b1-3)GlcNAc(b1-2)Man(a1-6)]Man(b1-4)GlcNAc(b1-4)GlcNAc
Method in brief: as §1

[45] = biological target: Gal(b1-3)GlcNAc(b1-2)[Gal(b1-3)GlcNAc(b1-6)]Man(a1-6)[Gal(b1-3)GlcNAc(b1-2)Man(a1-3)]Man(b1-4)GlcNAc(b1-4)GlcNAc
Method in brief: as §1

B1: HPAIIITrx (Helix pomatia), Q1KM18 (protein)
chain: MLFVTIISLGLLAIVHGQCALKTIAFSAAIDREQTFDANQVVIYDIVITNHGNAYDNSTGLFTAPVDGMYSFQLNLLTIKEKEGWLELVHNGQLKVSVYAKQDSTYDSSSNSVIIKMKEGDRVNVRAHKKSGLFGRDDELYNTFSGHFLSGL
[1]
  glycan array binding signal (z-score): -0.256
[2]
  glycan array binding signal (z-score): -0.233
[3]
  glycan array binding signal (z-score): -0.201
[4]
  glycan array binding signal (z-score): 0.863
[5]
  glycan array binding signal (z-score): -0.239
[6]
  glycan array binding signal (z-score): 0.146
[7]
  glycan array binding signal (z-score): -0.137
[8]
  glycan array binding signal (z-score): -0.384
[9]
  glycan array binding signal (z-score): 0.023
[10]
  glycan array binding signal (z-score): -0.155
[11]
  glycan array binding signal (z-score): -0.371
[12]
  glycan array binding signal (z-score): -0.173
[13]
  glycan array binding signal (z-score): -0.284
[14]
  glycan array binding signal (z-score): -0.286
[15]
  glycan array binding signal (z-score): -0.431
[16]
  glycan array binding signal (z-score): -0.392
[17]
  glycan array binding signal (z-score): 0.305
[18]
  glycan array binding signal (z-score): -0.333
[19]
  glycan array binding signal (z-score): -0.218
[20]
  glycan array binding signal (z-score): -0.015
[21]
  glycan array binding signal (z-score): -0.054
[22]
  glycan array binding signal (z-score): -0.262
[23]
  glycan array binding signal (z-score): -0.229
[24]
  glycan array binding signal (z-score): -0.227
[25]
  glycan array binding signal (z-score): -0.387
[26]
  glycan array binding signal (z-score): -0.164
[27]
  glycan array binding signal (z-score): 0.163
[28]
  glycan array binding signal (z-score): -0.21
[29]
  glycan array binding signal (z-score): -0.397
[30]
  glycan array binding signal (z-score): -0.404
[31]
  glycan array binding signal (z-score): -0.149
[32]
  glycan array binding signal (z-score): -0.608
[33]
  glycan array binding signal (z-score): -0.475
[34]
  glycan array binding signal (z-score): -0.35
[35]
  glycan array binding signal (z-score): -0.323
[36]
  glycan array binding signal (z-score): -0.253
[37]
  glycan array binding signal (z-score): -0.37
[38]
  glycan array binding signal (z-score): -0.149
[39]
  glycan array binding signal (z-score): -0.471
[40]
  glycan array binding signal (z-score): -0.46
[41]
  glycan array binding signal (z-score): 1.45
[42]
  glycan array binding signal (z-score): -0.388
[43]
  glycan array binding signal (z-score): -0.301
[44]
  glycan array binding signal (z-score): -0.29
[45]
  glycan array binding signal (z-score): -0.132
